{
  "source": "PubChem BioAssay AID588855",
  "about": "(National Center for Advancing Translational Sciences (NCATS), 2011)",
  "note": "“And” between values parts separate entries of the source, which are not always exact repeats. Equal entries are not always repeated. About 5,000 (1.2%) of roughly 410,000 compounds were called active. Inconclusive means that the source gave no clear call. Such entries were picked first, then a sample of the others. Calls come from the whole dose curve; as a rule, active = well fitted inhibition curve with a large enough effect; inconclusive = small, poorly fitted or top-dose-only effect; inactive = no such curve, though single readings can be large or run the other way. Potencies of inconclusive entries are doubtful fits and often do not repeat. Potency is the fitted concentration of half-maximal effect; tags give direction and shape of the fitted curve.",
  "data": [
    {"assay": "qHTS for Inhibitors of TGF-b; note: nearly all actives have a fitted effect of over 65% in size", "settings": "HepG2 CAGA-GFP TGF-b/SMAD3 reporter, GFP fluorescence, 18 h, TGF-beta stimulated, 500 pg/mL final; series mostly up to 46.1 µM", "outline": "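Cell-based qHTS in HEPG2 carrying a CAGA-GFP Smad reporter; compounds added before 500 pg/mL final TGF-beta, 18 h incubation at 37 degrees C, GFP fluorescence quantified per cell by imaging cytometry.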", "values": [
      {"smiles": "O=C(/C=C/c1cccc(C(F)(F)F)c1)NNC(=O)c1ccncc1", "Potency": "inactive"},
      {"smiles": "COC(=O)c1c(NC(=O)CSc2nnnn2-c2ccccc2)sc2c1CCC(C(C)(C)C)C2", "note": "(centres undefined)", "Potency": "inactive"},
      {"smiles": "COc1ccc(C2=NCCc3cc(OC)c(OC)cc32)cc1", "Potency": "inactive"},
      {"smiles": "Cc1ccc2[nH]c(=O)c3cc(C(=O)N(CCCOC(C)C)Cc4ccco4)sc3c2c1", "Potency": "inconclusive: 35.5 µM [inhibitor, single point] and inconclusive: 11.2 µM [inhibitor, partial curve, poor fit]"},
      {"smiles": "C=CCN(c1ccc(C(=O)OC)cc1)S(=O)(=O)c1ccccc1", "Potency": "inactive"},
      {"smiles": "O=C(Cn1cnc2ccccc2c1=O)NNC(=O)c1cccc([N+](=O)[O-])c1", "Potency": "inactive"},
      {"smiles": "Cc1ccc(C)c2[nH]c(=O)c(CCNC(=O)C(C)(C)C)cc12", "Potency": "inactive"},
      {"smiles": "C=CCN(CC=C)S(=O)(=O)c1ccc(C(=O)Nc2nnc(CSC)o2)cc1", "Potency": "inconclusive: 5.62 µM [inhibitor, partial curve, poor fit]"},
      {"smiles": "CCn1c(NCc2cc(Br)ccc2NS(=O)(=O)c2ccc(C)cc2)nc2ccccc21", "Potency": "inconclusive: 10 µM [inhibitor, partial curve, poor fit]"},
      {"smiles": "CC(=O)Nc1c(Cl)c(Cl)c2c(c1Cl)Cc1cc(Cl)ccc1-2", "Potency": "inconclusive: 6.31 µM [inhibitor, full curve, poor fit]"},
      {"smiles": "CC1(NC(=O)Cc2c(F)cccc2Cl)CCS(=O)(=O)C1", "note": "(centres undefined)", "Potency": "inactive"},
      {"smiles": "O=C(c1cc(Br)ccc1O)N(Cc1ccco1)Cc1cccs1", "Potency": "inconclusive: 15.8 µM [inhibitor, single point]"},
      {"smiles": "Cc1ccc(OCc2nc(C#N)c(NCCc3ccccc3)o2)cc1", "Potency": "active: 22.4 µM"},
      {"smiles": "Cc1ccc(CNC(=O)c2cc3c(-c4ccc(Cl)cc4)nn(C)c3s2)o1", "Potency": "inconclusive: 35.5 µM [inhibitor, single point]"},
      {"smiles": "CCCCc1cc(=O)oc2c(C)c(OCC(=O)NCC3CCC(C(=O)O)CC3)ccc12", "note": "(centres undefined)", "Potency": "inactive"},
      {"smiles": "CCc1cccc(NC(=O)c2cc3c(s2)-c2ccccc2OC3)c1", "Potency": "inconclusive: 15.8 µM [inhibitor, single point]"},
      {"smiles": "O=C(CN1C(=O)c2cccc3cccc1c23)Nc1cccc(F)c1", "Potency": "inactive"},
      {"smiles": "O=C(NCCN1CCOCC1)c1ccc(Cl)c(S(=O)(=O)N2CCCCCC2)c1", "Potency": "active: 2.51 µM"},
      {"smiles": "COc1ccc(C2/C=C\\CN(C(=O)CC(C)(C)C)CC(=O)N2Cc2ccc(F)cc2)cc1", "note": "(centres undefined)", "Potency": "inactive"},
      {"smiles": "Cc1ncc([N+](=O)[O-])n1CCOC(=O)NC(NCc1ccccc1Cl)C(Cl)(Cl)Cl", "note": "(centres undefined)", "Potency": "inconclusive: 0.794 µM [inhibitor, full curve, poor fit]"},
      {"smiles": "CCOc1ccc2nc(NC(=S)N(C)C)sc2c1", "Potency": "inactive"},
      {"smiles": "Cc1ccc(SCC(CC(C)C)N2CCN(CCc3ccccc3)CCC2=O)cc1", "note": "(centres undefined)", "Potency": "inconclusive: 35.5 µM [inhibitor, single point]"},
      {"smiles": "N#Cc1ccccc1OCC(=O)Nc1cccc(S(=O)(=O)N2CCCCCC2)c1", "Potency": "inactive"},
      {"smiles": "Cc1ccccc1OCC(=O)NCCCNC(=O)c1ccncc1", "Potency": "inactive"},
      {"smiles": "CN1C(=O)Cc2cc(S(=O)(=O)CCC(=O)N3CCN(c4ccc(Cl)cc4)CC3)ccc21", "Potency": "inconclusive: 7.08 µM [inhibitor, partial curve, poor fit]"},
      {"smiles": "CC(C)(C)n1nnnc1C(c1cccnc1)N(Cc1ccccc1)Cc1cccs1", "note": "(centres undefined)", "Potency": "inconclusive: 35.5 µM [inhibitor, single point]"},
      {"smiles": "CC1(C)C(=O)N(c2ccccc2)C1c1ccccc1O", "note": "(centres undefined)", "Potency": "inconclusive: 25.1 µM [inhibitor, single point]"},
      {"smiles": "C/C(=N\\NC(=O)COc1ccc(C(C)(C)C)cc1)c1ccc2c(c1)OCCO2", "Potency": "inconclusive: 22.4 µM [inhibitor, single point]"},
      {"smiles": "Cc1cc2nc(CCN(Cc3cccnc3)C(=S)Nc3ccccc3)[nH]c2cc1C", "Potency": "inconclusive: 1.58 µM [inhibitor, full curve, poor fit]"},
      {"smiles": "CN(CC(=O)Nc1ccc(Br)cc1)S(=O)(=O)c1cccc2nsnc12", "Potency": "inconclusive: 11.2 µM [inhibitor, partial curve]"},
      {"smiles": "NC(=O)c1ccc(N2CCNC(=O)C2)c([N+](=O)[O-])c1", "Potency": "inactive"},
      {"smiles": "CCC(c1ccc(O)cc1)C(CC)c1ccc(O)cc1", "note": "(centres undefined)", "Potency": "inconclusive: 35.5 µM [inhibitor, single point]"},
      {"smiles": "Cc1ccc(NC(=O)Cn2c(=O)n(CCCCC(=O)NCc3ccco3)c(=O)c3ccccc32)cc1", "Potency": "inconclusive: 3.16 µM [inhibitor, single point]"},
      {"smiles": "Cc1nn(CC(O)COc2ccc3c(c2)CCC3)c(C)c1Br", "note": "(centres undefined)", "Potency": "inconclusive: 12.6 µM [inhibitor, partial curve]"},
      {"smiles": "O=C(Nc1cccc([N+](=O)[O-])c1)c1ccncc1", "Potency": "inconclusive: 35.5 µM [inhibitor, single point]"},
      {"smiles": "Cn1c(=O)c2c(nc(CN3CCc4ccccc4C3)n2Cc2ccc(F)cc2)n(C)c1=O", "Potency": "inconclusive: 25.1 µM [inhibitor, single point]"},
      {"smiles": "CCOC(=O)c1ccccc1NC(=O)c1cnn(-c2ccc(OC)cc2)c1C1CCN(C(=O)OC(C)(C)C)CC1", "Potency": "inactive"},
      {"smiles": "COCC1CCCCN1C(=O)c1ccc(OC2CCN(CCc3ccccc3)CC2)cc1", "note": "(centres undefined)", "Potency": "inconclusive: 14.1 µM [inhibitor, single point]"},
      {"smiles": "Cc1ccc2c(c1)c(=O)c1ccccc1n2CCCC(=O)Nc1ccc(Cl)cc1C", "Potency": "inconclusive: 4.47 µM [inhibitor, full curve, poor fit]"},
      {"smiles": "O=C(c1cc(-c2ccc(Cl)cc2)on1)N1CCCCCC1", "Potency": "inconclusive: 35.5 µM [inhibitor, single point]"},
      {"smiles": "CC(C)(C)N(Cc1cc2ccccc2[nH]c1=O)C(=O)c1cccc([N+](=O)[O-])c1", "Potency": "inactive"},
      {"smiles": "CCn1c(O)c(/C=C2\\C=NN=C2c2ccc(C)cc2)sc1=S", "Potency": "inactive"},
      {"smiles": "O=C(Nc1ccccc1)Nc1cccn(Cc2c(F)cccc2Cl)c1=O", "Potency": "inconclusive: 35.5 µM [inhibitor, single point]"},
      {"smiles": "COc1cc(NC(=O)C2CCN(c3nnc(C)c4c(C)n(-c5ccccc5)nc34)CC2)cc(OC)c1", "Potency": "inconclusive: 1.78 µM [inhibitor, partial curve, poor fit]"}
    ]}
  ]
}
